# Measurements from publication PMC4336329 (PLoS ONE, 2015).
# Screen size: about 310,000 compounds; about 2,200 (0.71%) showed an effect of 50% or more. Effects have a minus sign here. The list shows a part of the results.
# Molecular target: human ether-à-go-go-related gene (hERG) potassium channel (human, UniProt Q12809)
# Experiment: primary screen, population patch clamp on CHO cells stably expressing hERG
# Chain of human ether-à-go-go-related gene (hERG) potassium channel (Q12809 whole entry, looked up): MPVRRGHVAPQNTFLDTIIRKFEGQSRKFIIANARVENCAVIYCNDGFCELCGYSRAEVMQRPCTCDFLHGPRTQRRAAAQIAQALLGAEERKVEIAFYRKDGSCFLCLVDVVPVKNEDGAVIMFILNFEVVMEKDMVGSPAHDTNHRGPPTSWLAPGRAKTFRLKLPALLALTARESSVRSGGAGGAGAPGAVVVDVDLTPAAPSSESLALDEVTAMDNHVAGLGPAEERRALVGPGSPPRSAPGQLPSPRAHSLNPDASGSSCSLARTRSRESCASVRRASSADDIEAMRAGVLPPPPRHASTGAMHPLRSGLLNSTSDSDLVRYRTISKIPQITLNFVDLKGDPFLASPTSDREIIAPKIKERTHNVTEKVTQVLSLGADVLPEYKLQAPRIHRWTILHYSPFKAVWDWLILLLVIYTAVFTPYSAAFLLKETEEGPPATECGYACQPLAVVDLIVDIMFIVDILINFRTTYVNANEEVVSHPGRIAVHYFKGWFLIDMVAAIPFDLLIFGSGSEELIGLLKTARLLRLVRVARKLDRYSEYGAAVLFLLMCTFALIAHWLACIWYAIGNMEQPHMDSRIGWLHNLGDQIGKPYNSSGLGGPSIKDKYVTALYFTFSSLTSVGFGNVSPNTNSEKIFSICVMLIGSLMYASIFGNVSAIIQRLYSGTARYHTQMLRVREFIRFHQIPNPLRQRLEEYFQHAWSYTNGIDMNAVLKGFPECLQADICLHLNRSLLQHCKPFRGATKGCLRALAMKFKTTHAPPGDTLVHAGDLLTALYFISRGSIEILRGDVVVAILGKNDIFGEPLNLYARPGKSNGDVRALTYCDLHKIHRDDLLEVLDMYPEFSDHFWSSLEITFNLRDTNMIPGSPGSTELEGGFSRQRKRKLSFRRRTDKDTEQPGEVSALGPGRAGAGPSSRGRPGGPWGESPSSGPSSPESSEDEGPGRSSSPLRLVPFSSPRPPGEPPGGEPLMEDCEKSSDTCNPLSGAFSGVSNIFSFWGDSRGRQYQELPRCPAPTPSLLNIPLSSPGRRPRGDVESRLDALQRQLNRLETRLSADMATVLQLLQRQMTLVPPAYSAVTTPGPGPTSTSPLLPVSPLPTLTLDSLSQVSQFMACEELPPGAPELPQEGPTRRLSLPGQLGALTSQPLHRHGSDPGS
row,SMILES,"hERG current change (%, negative = inhibition) at 1uM"
1,CNNC(=O)C(C)NC(=O)c1ccc(Br)cc1 (stereo not drawn),-9.65%
2,CC(C)CCOC(=O)C[N+](C)(C)CCOC1CC2CCC1(C)C2(C)C.[Cl-] (stereo not drawn),-1.93%
3,C=CCn1c(COc2ccccc2F)nnc1SCCN1C(=O)c2ccccc2C1=O,-1.37%
4,O=C1NC(=O)/C(=C/c2cccc(O)c2)N1,12.9%
5,CC(=O)Nc1ccc(OCC(=O)NC(C)c2ccc(F)cc2)cc1 (stereo not drawn),14.9%
6,COc1cc(C(=O)NCCC(=O)NC2CCCc3ccccc32)cc(OC)c1OC (stereo not drawn),31.1%
7,O=C(O)C(=O)O.O=S(=O)(c1ccc(F)cc1)N1CCN(Cc2ccccn2)CC1,8.85%
8,N#CC1=C(SCC(=O)c2ccc(Br)cc2)NC2=C(C(=O)CCC2)C1c1ccco1 (stereo not drawn),4.69%
9,COc1ccccc1-c1oc2ccccc2c1C#CCCO,9.84%
10,COc1ccc(-c2ccc(NC(=O)c3ccco3)cc2)nn1,15.5%
11,O=C(O)c1cccc2c1C(=O)N(c1ccccc1)C2,7.58%
12,Cc1nn(C)c(-c2n[nH]c(=S)n2-c2ccccc2)c1Cl,20.8%
13,CCOc1cc(/C=C(\C#N)c2nc3ccccc3[nH]2)ccc1OC(C)C(=O)O (stereo not drawn),11.3%
14,O=C(OC(C(=O)NC1CCCC1)c1ccccn1)c1cccs1 (stereo not drawn),2.51%
15,COC(=O)c1c(NC(=O)CSc2nc3ccccc3c(=O)n2Cc2ccco2)sc(C)c1C,2.12%
16,CC(C)[C@H](NC(=O)c1ccco1)C(=O)OCC(=O)Nc1cccc(F)c1,7.89%
17,CCCn1c(=O)c(C(=O)Nc2ccccc2C(=O)OC)c(O)c2ccccc21,1.64%
18,O=C(NS(=O)(=O)Oc1cccc(Cl)c1Cl)OC[C@@H]1CCCN2CCCCC12 (stereo partly drawn),9.33%
19,O=C(Nc1ccncc1)c1ccc(Cl)c(S(=O)(=O)N2CCCC2)c1,7.67%
20,COc1ccccc1NC(=O)NC1(C(=O)N2CCCCC2)CCCCC1,16.3%
21,O=C(CN1CCC(O)(c2ccc(F)cc2)CC1)NCc1ccc(F)cc1,-0.396%
22,COc1ccccc1OCC(=O)NCC1CCCCC1,2.22%

row,SMILES,"hERG current change (%, negative = inhibition) at 1uM"
1,Cc1ccc(-n2c(SCC(=O)NCc3ccco3)nc3c([nH]c4ccccc43)c2=O)cc1,7.44%
2,CCc1onc(C)c1C(=O)Nc1cc(C)ccc1OC,8.49%
3,COc1cc(NC(=O)c2cccs2)c(OC)cc1NC(=O)Nc1ccc(F)cc1,16%
4,c1ccc(-c2nc3ccccc3c3nc4ccccc4n23)cc1,8.33%
5,O=C(CCC(=O)c1cccs1)NCC(=O)Nc1ccc(F)c(F)c1F,7.77%
6,CCCCc1cc(=O)oc2cc(OCC(=O)NC3CCN(Cc4ccccc4)CC3)ccc12,-41.7%
7,Cc1c(C2C(C#N)=C(N)OC3=C2C(=O)CCC3)cnn1C (stereo not drawn),11.3%
8,COc1ccc(N2CC(C(=O)N[C@@H](C)C(=O)NC3CCCCC3)CC2=O)cc1 (stereo partly drawn),18.3%
9,COc1ccc(NC(=O)C2CCCN(S(C)(=O)=O)C2)cc1 (stereo not drawn),19.7%
10,COc1cc(C(=O)NC(=S)NC(C)C)cc(OC)c1OC,-1.13%
11,COc1cc(C(=O)N2CCC(N3CCCCCC3)CC2)cc(OC)c1OC.O=C(O)C(=O)O,8.18%
12,O=C(CCN1C(=O)c2ccc([N+](=O)[O-])cc2C1=O)Nc1ccc(O)cc1C(=O)O,30%
13,Cc1cccc(NS(=O)(=O)c2cccs2)n1,17.6%
14,Cc1ccc(NC(=S)N(Cc2cccc(Br)c2)CC2CCC(C(=O)O)CC2)cc1Cl (stereo not drawn),-7.65%
15,Cc1ccc(NC(=O)c2cnccn2)cc1S(=O)(=O)N(C)C,17%
16,CCC(C(=O)NCCN1CCOCC1)n1c2ccccc2c2nc(=O)cc(C)n21 (stereo not drawn),21.6%
17,COc1ccc(CCNC(=O)COc2ccc(N(C)S(=O)(=O)c3ccc(C)cc3)cc2)cc1OC,-5.06%
18,CCN1CCN(CCCNC(=O)c2ccc(/C=C3/Sc4ccccc4N(Cc4ccccc4F)C3=O)cc2)CC1,5.98%
19,COC(=O)C1=C(C)N(C)C(C)=C(C(=O)OC)C1c1cccc(Br)c1,5.09%
20,CN(C)CCN(CC1CCCN(Cc2ccccc2F)C1)C(=O)Cc1ccccc1F (stereo not drawn),10.1%
21,COc1ccccc1NC(=O)Cc1nnc(SCC(=O)c2ccccc2)n1C,14.2%
22,CC(=O)Nc1cccc(/C(C)=N/NC(=O)c2cccc(S(=O)(=O)N3CCOCC3)c2)c1,4.66%

row,SMILES,"hERG current change (%, negative = inhibition) at 1uM"
1,COc1ccc(NC(=O)C2C3C=CC(O3)C2C(=O)NCc2cccnc2)cc1 (stereo not drawn),2.8%
2,COC(=O)c1ccc(NC(=O)CCN2CCN(Cc3ccccc3)CC2)cc1,-16.9%
3,O=C(O)c1cnc(-c2ccccc2)nc1C(F)(F)F,18.5%
4,COc1ccc(-c2ccc(/C=C3\C(=O)N(c4ccccc4)N=C3c3ccccc3)o2)c([N+](=O)[O-])c1,15.3%
5,CC(C)(C)SCCNS(=O)(=O)c1ccc(C#N)cc1,9.46%
6,O=C(COC(=O)c1ccccc1)NC12CC3CC(CC(C3)C1)C2,14.2%
7,O=C(C[N+]1(CC#Cc2ccccc2)CCCCC1)c1ccc(Cl)cc1.[Br-],12.5%
8,CS(=O)(=O)c1ccc(Cl)c(NC(=O)COC(=O)C23CC4CC(CC(C4)C2)C3)c1,4.37%
9,Cc1cccc2sc(N(CCCN(C)C)C(=O)c3sc4ccccc4c3Cl)nc12.Cl,1.41%
10,COc1ccccc1NC(=O)c1ccc(C(=O)c2ccccc2)o1,-7.07%
11,COC(=O)c1cn(-c2ccc(Cl)cc2)c(=O)c2ccccc12,4.32%
12,CCc1cc(=O)oc2cc(C)cc(OC(=O)c3ccco3)c12,19.4%
13,c1ccc(-c2ccnc3nc(-n4cccc4)nn23)cc1,19%
14,CCCCn1nnnc1SCC(=O)NCc1ccccc1,6.53%
15,COc1ccc(Cl)cc1C(=O)NNC(=S)NC(=O)c1ccc(F)c(F)c1,9.17%
16,O=C(O)c1ccc(/C=C2\SC(=S)N(NC(=O)c3ccccc3[N+](=O)[O-])C2=O)cc1,8.05%
17,COc1ccc(OC)c(NC(=O)c2cc(-c3c(C)cc(C)cc3O)n[nH]2)c1,29.5%
18,O=S(=O)(Nc1ccc(Br)cc1)c1cccc(NC(=S)NCCN2CCOCC2)c1,12.1%
19,CC(C)Cc1ccc(CN2CCCC(NC(=O)c3ccoc3)C2)cc1 (stereo not drawn),-7.26%
20,CCOC(=O)Cc1[nH]nc2c1C(c1cccc(OC)c1OC)C(C#N)=C(N)O2 (stereo not drawn),4.15%
21,Cc1occc1C(=O)N1CCCC(Nc2ccc(C(C)C)cc2)C1 (stereo not drawn),13.3%
22,Cc1noc(/C=C/c2ccco2)c1S(=O)(=O)N1CCC(C(=O)NCc2ccco2)CC1,-1.4%

row,SMILES,"hERG current change (%, negative = inhibition) at 1uM"
1,CC1(c2nnc(-c3cccc(Cl)c3)o2)CC(c2ccc(Cl)cc2)=NO1 (stereo not drawn),17%
2,Cc1c(CCC(=O)O)c(=O)oc2cc(OCc3ccc(Br)cc3)ccc12,6.19%
3,CC(=O)N1CCN(S(=O)(=O)c2ccc(C)cc2)C1C (stereo not drawn),8.95%
4,Cc1ccccc1OCC(O)CNC1CCCC1.Cl (stereo not drawn),11.4%
5,COc1ccc(NC(=O)CN2CCN(c3ccccc3)CC2)cc1,3.56%
6,Cc1cc(-c2nnc(SCC(=O)Nc3cccc(F)c3)n2N)n[nH]1,7%
7,CCSc1nc(C)nc2sc(C)c(C)c12,11.6%
8,O=C(O)c1ccccn1,1.43%
9,O=C(NCC(=O)N1CCN(c2ncccn2)CC1)c1ccc(F)cc1,0.59%
10,CCc1cccc(C)c1NC(=O)CSc1nnc(Cc2csc(C)n2)o1,1.18%
11,COc1ccc(/C=N/N2CCOCC2)cc1COc1ccc(Cl)cc1,10.3%
12,O=C(Nc1ccccc1N1CCOCC1)c1ccccc1NS(=O)(=O)c1ccc(F)c(F)c1,6.53%
13,Cc1ccc(NC(=O)CCN2C(=O)NC3(CCCC3)C2=O)cc1S(=O)(=O)N1CCOCC1,3.22%
14,O/N=C/c1ccccc1OCc1ccc(Cl)cc1,10.1%
15,Cn1c(CNc2nc3ccccc3n2C)nc2ccccc21,-2.58%
16,O=C(NC1CCCCCC1)C1C2C=CC3(CN(Cc4cccnc4)C(=O)C13)O2 (stereo not drawn),6.42%
17,COc1ccc(Cc2nnc(NC(=O)CSc3ccccc3)s2)cc1,16.1%
18,COc1ccc(-n2cc3c(-c4cccc(Br)c4)nnc(C)c3n2)cc1,7.35%
19,CCCCN(C(=O)C1CC(=O)N(c2ccc(OC)cc2OC)C1)c1c(N)n(CC(C)C)c(=O)[nH]c1=O (stereo not drawn),14.6%
20,CCOC(=O)C(/C=N/c1cc(C)nn1-c1ccccc1)=C(\C)O,14%
21,COC(=O)[C@]12C(=O)C(C)=C(O)[C@@]1(C)C(C)=CC1[C@@]34CC[C@@H](OC(C)=O)C(C)(C)C3C(C[C@]12C)OC4=O (stereo partly drawn),7.57%
